Source: PubChem BioAssay AID1345083 (National Center for Advancing Translational Sciences (NCATS), 2018)
Where “and” joins values, the source holds several entries; their conditions need not be identical. Equal values may be shown once. Screen size: about 94,000 compounds; about 6,200 (6.6%) were called active. This list was built around the results that the source calls inconclusive (neither active nor inactive); the mix of calls is not that of the screen. The call rests on the fitted dose curve; in most records, active means well fitted inhibition curve with a large enough effect; inconclusive means small, poorly fitted or top-dose-only effect; inactive means flat fitted curve, though single readings scatter. Potencies of inconclusive entries are doubtful fits and often do not repeat.

Test: Cytotoxic Profiling in HEK 293 Cell Line of Diverse Libraries Using Quantitative High-Throughput Screening; further: nearly all actives have a fitted effect of over 60% in size
Conditions: HEK 293 viability, ATP luminescence (CellTiter-Glo), 48-72 h; series mostly up to 115 µM
Description: Cell-based phenotypic screening is a commonly used approach to discover biological pathways, novel drug targets, chemical probes and high-quality hit-to-lead molecules. Many hits identified from high-throughput screening campaign are ruled out through a series of follow-up potency, selectivity/specificity, and cytotoxicity assays. Prioritization of molecules with little or no cytotoxicity for a more in-depth downstream evaluation influence the future direction of projects, so cytotoxicity profiling of the screening libraries at early stage is essential for increasing the likelihood of candidate success. In this study, we analyzed results from a cell-based cytotoxicity screening campaign, comprising nearly 10,000 compounds in NCATS annotated libraries, and over 100,000 compounds in a diversity library, evaluated in four normal cell lines (HEK 293, NIH 3T3, CRL-7250 and HaCat) and a cancer cell line (KB 3-1, a HeLa subline) with overall screening outcomes, hit rates, pan-activity and selectivity. For the annotated library, we also examined the primary targets and mechanistic pathways regularly associated with cell death. To our knowledge, this is the first study to use high-throughput screening to profile large libraries for cytotoxicity assessment in both normal and cancer cell lines. In summary, the results generated here constitutes a valuable resource for the scientific community and provides insight on identifying cytotoxic compounds with particular mechanisms of action, and prioritizing compounds with suitable cytotoxicity profile for further evaluation.
HEK 293 cells were seeded into white 1536-well plates using a Multidrop Combi peristaltic dispenser (ThermoFisher, Waltham, MA) at a density of 250 cells/well in 5 uL of medium respectively. A pintool (Kalypsys) was used to transfer 23 nL of compound solution to the 1536-well assay plates. After 48 or 72 hr incubation at 37 degree Celsius, 5% CO2 and 95% humidity, 2.5 uL of CellTiter-Glo (Promega) was dispensed into each well using a dispenser (Aspect Automation, St. Paul, MN) with solenoid valves (Lee Valves, Westbrook CT). Plates were left at room temperature for 10 min before imaging the ATP-coupled luminescence using a ViewLux microplate imager (PerkinElmer, Waltham, MA).
Potency means the concentration at half of the fitted maximal effect; tags describe the fitted curve by direction and shape.

| SMILES | Potency |
| --- | --- |
| CCOc1ccccc1CN1CCCN(S(C)(=O)=O)C(c2ccccc2)CC(=O)NCC1 (centres undefined) | inactive |
| CN(Cc1cccc(C(=O)Nc2cccc(C#N)c2)c1)CC1COCCO1 (centres undefined) | inconclusive: 89.1 µM [inhibitor, single point] |
| CCOCCNC(=O)C1CCCN1Cc1cccc(-c2ccc(C)c(Cl)c2)c1 (centres undefined) | inconclusive: 20 µM [inhibitor, full curve, poor fit] |
| COc1ccc(C(=O)N2CCc3onc(-c4ccc(C(F)(F)F)cc4)c3C2)o1 | inconclusive: 28.2 µM [inhibitor, full curve, poor fit] |
| COc1ccc(CCNC(=O)c2nc3cccnc3n(C3CCCCC3)c2=O)cc1 | inconclusive: 56.2 µM [inhibitor, partial curve, poor fit] |
| Fc1ccccc1CN1CCNc2cnc(OCc3cccnc3)cc2C1 | inconclusive: 126 µM [inhibitor, partial curve, poor fit] |
| COCCn1nc2n(c1=O)CCN(C(=O)CCc1c(C)noc1C)CC2 | inactive |
| COc1ccc(F)cc1-c1cccc(C(=O)NCCNC(=O)c2ccccc2C)c1 | inconclusive: 39.8 µM [inhibitor, full curve, poor fit] |
| O=C(Nc1ccc([C@H]2OCC(=O)N(Cc3ccc(F)cc3)[C@@H]2CO)cc1)C1CCOCC1 | inactive |
| NC1CCC(n2cc(C(=O)NCc3cc(-c4cccnc4)no3)nn2)CC1 (centres undefined) | inconclusive: 39.8 µM [inhibitor, partial curve, poor fit] |
| CS(=O)(=O)N1CCC(OC2CCN(C(=O)Nc3ccc(Cl)cc3F)CC2)CC1 | inconclusive: 70.8 µM [inhibitor, single point] |
| Cn1nc(NC(=O)CSc2ccccc2)c2c(N3CCOCC3)cccc21 | inconclusive: 56.2 µM [inhibitor, partial curve, poor fit] |
| COc1ccc(-c2nc(C3CC3)nc3c2CCN(Cc2cccn2C)CC3)cc1 | inconclusive: 50.1 µM [inhibitor, partial curve, poor fit] |
| c1cc(-c2nc3ccncc3[nH]2)ccn1 | inconclusive: 79.4 µM [inhibitor, partial curve] and inconclusive: 112 µM [inhibitor, partial curve, poor fit] |
| COc1ccccc1CN1CCc2nc(C(=O)N3CCOCC3)oc2CC1 | active: 100 µM |
| O=C(O)c1ccc(-c2nc3ccncc3[nH]2)cc1 | inconclusive: 100 µM [inhibitor, partial curve] |
| COc1ccccc1-c1cc(C(=O)NC2CCCCC2)nn2cnnc12 | inconclusive: 89.1 µM [inhibitor, single point] |
| CC1(CCCCc2ccccc2)COc2ccc(C(=O)NCc3cccnc3)cc2N1 (centres undefined) | inconclusive: 112 µM [inhibitor, partial curve, poor fit] |
| COc1ccc(F)cc1-c1ccc(CN2CCCCC2C(=O)NCC(F)F)cc1 (centres undefined) | active: 35.5 µM |
| O=C(CCc1cc(Cl)no1)N1CCc2nc3cc(-c4ccccc4)[nH]n3c(=O)c2C1 | inconclusive: 50.1 µM [inhibitor, partial curve, poor fit] |
| CC(C)C(=O)N1CCC(Oc2ncccc2C(=O)N2CCCCC2)C1 (centres undefined) | inactive |
| COc1ccc(C2Cn3nnc(C(=O)N4CCN(C(=O)Cc5cccc(F)c5)CC4)c3CO2)cc1 (centres undefined) | inconclusive: 12.6 µM [inhibitor, partial curve, poor fit] |

| SMILES | Potency |
| --- | --- |
| COc1ccc(OC)c(CNC(=O)c2nnn3c2COC(c2ccc(F)cc2)C3)c1 (centres undefined) | inconclusive: 44.7 µM [inhibitor, partial curve, poor fit] |
| CC(C)c1noc(-c2cn(C3CCN(C(=O)Cc4ccc(Cl)cc4)C3)nn2)n1 (centres undefined) | inconclusive: 89.1 µM [inhibitor, single point] |
| CC1CCN(C(=O)c2ccccc2OCC2CCCN(C3CCCC3)C2)CC1 (centres undefined) | inconclusive: 50.1 µM [inhibitor, partial curve, poor fit] |
| CSc1cccc(NC(=O)c2ccc3c(c2)N(C)C2CCCN2C3=O)c1 (centres undefined) | inconclusive: 39.8 µM [inhibitor, partial curve, poor fit] |
| COc1ccccc1OCCNC(=O)c1ccc2c(c1)C(O)CCCCCN2C (centres undefined) | inconclusive: 56.2 µM [inhibitor, partial curve, poor fit] |
| CC1CCCCC1NC(=O)c1cc(-c2ccccc2C(F)(F)F)nc2c1cnn2C (centres undefined) | inconclusive: 31.6 µM [inhibitor, full curve, poor fit] |
| COCc1nc(-c2ccc(OC3CCN(C(=O)Cc4c[nH]c5ccccc45)C3)cc2)no1 (centres undefined) | active: 35.5 µM |
| O=C(N[C@H]1C[C@@H]2C(=O)N[C@H]3CCN(C(=O)C4CCCC4)[C@@H]3C(=O)N2C1)c1ccc(F)c(Cl)c1 | inactive |
| COc1ccc(-c2cc(C[C@H]3CNCC[C@H]3CC(=O)N3CCN(c4ccccc4)CC3)no2)cc1 | active: 39.8 µM |
| O=C(CN1CC2CC(C1)[C@H]1CCCC(=O)N1C2)N1CCCCC1 (some centres undefined) | inactive |
| CCCc1noc(-c2cccn3c(CNC(=O)c4cc(F)ccc4Cl)nnc23)n1 | inconclusive: 89.1 µM [inhibitor, single point] |
| CCCCc1nc2cc(C(=O)N(C)Cc3ccc4nonc4c3)ccc2o1 | inconclusive: 44.7 µM [inhibitor, partial curve, poor fit] |
| COCC1CN(C)CC12CCN(Cc1ccc(Cl)c(F)c1)CC2 (centres undefined) | inconclusive: 50.1 µM [inhibitor, partial curve, poor fit] |
| COc1cccc(CN2CCNc3cc(-c4ccnc(C)c4)ncc3C2)c1 | active: 70.8 µM |
| COc1ccc(-c2cn(C)c(=O)n3cc(CN4CCNC(=O)C4)nc23)c(C(F)(F)F)c1 | inconclusive: 22.4 µM [inhibitor, full curve, poor fit] |
| CCCNC(=O)N1CCC(c2noc(COc3ccc(C)cc3)n2)CC1 | inconclusive: 89.1 µM [inhibitor, single point] |
| CCOc1ccc2c(n1)CCN(C(=O)Cc1c(C)noc1C)C2 | inconclusive: 39.8 µM [inhibitor, partial curve] |
| Cc1noc(C)c1S(=O)(=O)N1CCOc2ccc(CN3CCOCC3)cc2C1 | inactive |
| CC(C)c1ccc(NC(=O)CC2=C3CCCCC3N(C(C)C)C2=O)cc1 (centres undefined) | inconclusive: 56.2 µM [inhibitor, partial curve, poor fit] |
| Cc1cc(N2CCC(NCc3noc(C)n3)CC2)nc(-c2ccccc2O)n1 | inconclusive: 56.2 µM [inhibitor, partial curve, poor fit] |
| O=C(NCC1(COc2ccc(C(F)(F)F)cn2)C[C@@H](O)[C@@H](O)C1)c1cnccn1 (some centres undefined) | inactive |
| COc1ccc(-c2nc3c(C)cccc3cc2CN2CC[C@@H](O)C2)cc1 | inconclusive: 100 µM [inhibitor, partial curve, poor fit] |

| SMILES | Potency |
| --- | --- |
| COc1ccc(-c2cc(C(=O)N3CCN(Cc4ccccc4)CC3)c3cnn(C)c3n2)cc1 | active: 35.5 µM |
| COc1ccc(NC(=O)Nc2ccc(C)n(CC(=O)Nc3cccc(C)c3)c2=O)cc1 | inconclusive: 56.2 µM [inhibitor, partial curve, poor fit] |
| CC(C)(C)c1cnc([C@@H]2COCCN2Cc2ccc(C(=O)O)cc2)[nH]1 | inactive |
| CCN1c2cc(C(=O)N3CCN(C4CCCCC4)CC3)ccc2C(=O)N2CCCCCC21 (centres undefined) | inconclusive: 31.6 µM [inhibitor, partial curve] |
| CN1CCc2c([nH]c3ccccc23)C12CCN(C(=O)c1ccnn1C)CC2 | inactive |
| COc1ccc2ccccc2c1CCNC(=O)CC1C(=O)NCCN1C(C)C (centres undefined) | inactive |
| Cc1cn2nc(C(=O)N3CCC(NC(=O)C4(c5ccccc5)CC4)CC3)cc2c(=O)[nH]1 | inactive |
| COc1cccc(-c2noc(CC3CCN(C(=O)c4ccccc4)CC3)n2)c1 | active: 39.8 µM |
| O=C(NC1CC1)c1ccccc1OC1CN(Cc2ccc(F)c(F)c2)C1 | inconclusive: 56.2 µM [inhibitor, partial curve, poor fit] |
| CCCN1CCC2(CCN(C(=O)c3ccc(F)cc3)CC2)Oc2ccccc21 | inconclusive: 56.2 µM [inhibitor, partial curve, poor fit] |
| O=C1c2cnc(-c3ccc(O)c(F)c3)nc2OCCN1Cc1ccccc1 | inactive |
| CCN(CC)C(=O)CCc1c(C)nn(-c2cccc(C)c2)c1Oc1ccccc1 | inconclusive: 12.6 µM [inhibitor, full curve, poor fit] |
| CC(C)CCN1CCc2nc(N3CCc4ccccc4C3)[nH]c(=O)c2CC1 | inactive |
| CN1C[C@H](NC(=O)c2cnccn2)CCC[C@@H](C(=O)NCc2cc(F)cc(F)c2)CC1=O | inactive |
| CC(C)NC(=O)N1Cc2ccccc2OC2(CCN(Cc3ccncc3)CC2)C1 | inactive |
| CCOC(=O)[C@@H]1CN(C(=O)c2ccccc2OC(F)(F)F)[C@H]2c3cccc(F)c3O[C@@H]12 | inconclusive: 50.1 µM [inhibitor, partial curve, poor fit] |
| CN(Cc1ccc2nonc2c1)Cc1cc2n(n1)CCN(S(C)(=O)=O)C2 | inactive |
| O=C(CCc1ccccc1)N1CCN(C(=O)c2nnn3c2COC(c2ccc(Cl)cc2)C3)CC1 (centres undefined) | inconclusive: 44.7 µM [inhibitor, partial curve, poor fit] |
| Cn1nccc1CN1CCCC2(CC(c3cccc(C(F)(F)F)c3)=NO2)C1 (centres undefined) | active: 44.7 µM |
| CC(C)n1cnnc1CC1CCN(S(=O)(=O)c2ccc3c(c2)CCC3)C1 (centres undefined) | inactive |
